Data from PubChem BioAssay AID1963432 (Molecular Pharmacology Branch, DTP, NCI, 2024).
A number of entries come with more than one value. This is not the full list of results. An entry can have further records. The records of an entry repeat one measurement across runs, samples, wells, individuals or studies. Dates in brackets are months of testing.

Tested on: SYO-1 complex spheroid growth, percent test/control
Experiment: Anticancer human tumor SYO-1 cell line growth inhibition [Asc];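 note: compound exposure lasted 7 days after spheroids grew 3 days; 100% = DMSO vehicle control viability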
Settings: stronger effect = lower value
Experimental: Multicellular complex tumor spheroid response to apoptosis pathway targeting inhibitors Alrizomadlin, Pelcitoclax, and Dasminapant in combination with a variety of drugs and investigational agents in selected tumor cell lines
The MDM2 inhibitor alrizomadlin, the Bcl-2/Bcl-xL inhibitor pelcitoclax, and the IAPs inhibitor dasminapant were evaluated both individually and in combination with standard of care and investigational anticancer small molecules within a complex spheroid model of solid tumors. . Complex spheroids include a stromal component modeled by human endothelial cells (HUVEC) and fibroblasts modeled by human mesenchymal stem cells (MSCs). The concentration ranges selected for each drug and investigational agent were based upon clinically achievable concentrations if the clinical Cmax of the agent was known.
Compounds. […] If the clinical Cmax for an agent had not been determined, the highest concentration tested was 10 microM. […]

SMILES: CNC(C)C(=O)NC1CN(S(=O)(=O)c2cccc(S(=O)(=O)N3CCC4CCC(C(=O)NC(c5ccccc5)c5ccccc5)N4C(=O)C(NC(=O)C(C)NC)C3)c2)CCC2CCC(C(=O)NC(c3ccccc3)c3ccccc3)N2C1=O (configuration not stated)
- viability, T/C (compound alone 0.1 µM): 92.5, 105, 98, 84.7, 86.9, 103, 96.1, 94.6, 92.3, 84, 91.7% [2022-10] and 112%, 96.6%, 110% [2022-11]

SMILES: CCN1C(C(=O)NC23CCC(C(=O)O)(CC2)CC3)C(c2cccc(Cl)c2F)C2(C(=O)Nc3cc(Cl)ccc32)C12CCCCC2 (configuration not stated)
- viability, T/C (compound alone 0.0949 µM): 66% [2022-10] and 95.3, 85.3, 81.2, 85.5, 84.1, 87.6, 87, 81.5% [2022-11]
